About 6,900 (2%) of roughly 340,000 compounds were called active. No stated cut-off is given here; in the data, active means inhibition above about 30%; inactive means below that, where a call was filed. The entries are a selection whose mix differs from that of the whole data set. Where no call is shown, the source filed none.
Each compound was assayed against D(2) dopamine receptor (Homo sapiens) (UniProt P14416) (assay: HTS Assay for Allosteric Antagonists of the Human D2 Dopamine Receptor: Primary Screen for Antagonists). Details: HEK293 TREx D2 cells, calcium flux, dopamine EC80; at 10 µM; stronger effect = higher value.
Sequence of UniProt P14416 (P14416 whole entry, looked up): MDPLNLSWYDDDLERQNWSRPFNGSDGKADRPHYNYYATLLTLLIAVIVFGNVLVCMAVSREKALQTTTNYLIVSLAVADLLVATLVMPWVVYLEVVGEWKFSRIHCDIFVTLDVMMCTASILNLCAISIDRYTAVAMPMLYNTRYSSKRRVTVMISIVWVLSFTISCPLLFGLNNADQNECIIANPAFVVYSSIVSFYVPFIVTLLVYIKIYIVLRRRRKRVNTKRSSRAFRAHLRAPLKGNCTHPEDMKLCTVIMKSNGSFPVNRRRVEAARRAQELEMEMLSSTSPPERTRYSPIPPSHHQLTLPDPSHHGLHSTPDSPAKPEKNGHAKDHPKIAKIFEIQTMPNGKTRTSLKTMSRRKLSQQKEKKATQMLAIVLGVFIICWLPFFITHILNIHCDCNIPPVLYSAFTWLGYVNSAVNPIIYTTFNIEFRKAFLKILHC
In short: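 Dopamine at EC80 is the agonist stimulus; test compounds precede it by 180 s. Calcium flux read kinetically in a force-coupled, inducible HEK293 T-REx D2 cell line.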
`O=C(O)c1ccc2nc(-c3cc4cc(Cl)ccc4oc3=O)[nH]c2c1` gave an inhibition of -13.6%.
`Cc1ccc(-c2nc3c4ccccc4n(CC(=O)NCc4ccc(F)cc4)c(=O)n3n2)cc1` was tested, and the inhibition was -0.928%.
With `COc1ccc(C)cc1NC(=O)c1cnc2ccc(C)cn2c1=O` the inhibition was 10.3%.
With `Cc1cc2c(cc3c(SCc4ccc(Cl)cc4)nncn32)o1` the inhibition was 14.4%.
With `COCCNC(=O)CCCn1c(SCC(=O)c2ccc(Br)cc2)nc2c(sc3ccccc32)c1=O` the inhibition was -2.92%.
In the case of `O=C(OCc1c(Cl)cccc1Cl)c1ccccn1`, the inhibition is reported as active: 34.7%.
With `Cc1ccc(OCC(=O)NCC(c2ccc(Cl)cc2)N2CCOCC2)cc1C` (stereo not given) the inhibition was -1.62%.
For `Cc1ccn2c(=O)cc(COc3ccc(NC(=O)COc4ccc(C)c(C)c4)cc3)nc2c1`, the inhibition was -6.47%.
With `CCOc1cc(C2c3c(oc4ccccc4c3=O)C(=O)N2Cc2ccc(OC)cc2)ccc1O` (stereo not given) the inhibition was 6.43%.
Compound `CCOc1ccc(CNC(=O)c2ccc3[nH]c(C)c(C)c3c2)cc1OC` has an inhibition of -8.88%.
`CCc1ccc(NC(=O)N(Cc2c[nH]c3ccccc23)C2CCCCC2)cc1` showed an inhibition of 12.7%.
In the case of `CCOc1cc(C(=O)Nc2ccc(NC(=O)c3cc4ccccc4o3)c(OC)c2)cc(OCC)c1OCC`, the inhibition is reported as 14.8%.
Work on `CCOc1ccc2nc(N3CCCC(C(=O)Nc4cc(C)ccc4C)C3)sc2c1` (stereo not given) yielded an inhibition of 3.69%.
Compound `Cc1ccc(NC(=O)Nc2c[nH]c(=O)[nH]c2=O)c(Cl)c1` has an inhibition of -1.16%.
With `Cc1ccc(C(=O)NCC(c2ccco2)N2CCCCC2)s1` (stereo not given) the inhibition was active: 36%.
For `CC(=O)Nc1ccc(NC(=O)C2CCN(S(=O)(=O)c3ccc4c(c3)CCCC(=O)N4)CC2)cc1`, the inhibition was 3.77%.
`CCc1ccccc1NC(=O)CSc1nnc(-c2ccc(OC)cc2)s1` gave an inhibition of 16%.
`Cc1ccc(NS(=O)(=O)c2cc(-c3cc(C)no3)ccc2C)c(Cl)c1` showed an inhibition of 2.13%.
`Cc1cc(NC(=O)CCc2nc3cccnc3n2Cc2cccs2)ccc1Br` gave an inhibition of 1.78%.
`Cc1cccc(NC(=O)c2oc3ccccc3c2NC(=O)c2cc(=O)c3ccc(C)cc3o2)c1` was tested, and the inhibition was 10.8%.
In the case of `CSc1nc(C(=O)N2CCCC(N3CCN(c4ccccc4C)CC3)C2)cs1` (stereo not given), the inhibition is reported as active: 39%.
`Cc1ccc(-n2c(=O)c3c(cnn3C)n(Cc3ccc(Cl)cc3)c2=O)cc1` gave an inhibition of 13.3%.
Work on `CCC1CN(C(=O)N2CCC(C(=O)NCc3cc(OC)c(OC)c(OC)c3)CC2)c2ccccc2O1` (stereo not given) yielded an inhibition of -2.22%.
With `CN(C)c1ccc(NC(=O)Cn2nnc3sc4c(c3c2=O)CCC(C(C)(C)C)C4)cc1` (stereo not given) the inhibition was 14.6%.
In the case of `CN(C)c1cccc(C(=O)Nc2nc3ccc(S(=O)(=O)N4CCCC4)cc3s2)c1`, the inhibition is reported as -1.49%.
With `O=C(Nc1ccc(O)c(-c2nc3ccccc3o2)c1)c1ccc(Br)cc1` the inhibition was -6.03%.
With `CCSc1ncc(Cl)c(C(=O)Nc2nc3ccc(Cl)cc3s2)n1` the inhibition was -24.3%.
With `CN(C)c1ccc(CNC(=O)CN2C(=O)CSc3ccc(S(=O)(=O)N4CCCC4)cc32)cc1` the inhibition was 8.92%.
For `C[C@]12CCC(O)CC1CCC1C2CC[C@]2(C)C(c3cc(C(F)(F)F)n[nH]3)CCC12` (stereo not given in full), the inhibition was active: 44.1%.
`COc1ccc(NC(=O)CSC2=Nc3ccccc3N=C(c3ccc(F)cc3)C2)cc1OC` was tested, and the inhibition was -1.37%.
Compound `CCN(C(=O)CCNC(=O)Cn1cnc2ccccc2c1=O)c1cc(OC)ccc1OC` has an inhibition of -10.1%.
`Cc1ccc2c(c1)c1c(c(=O)n(-c3ccccc3C)c(=O)n1CC(=O)c1ccc(Cl)cc1)n2C` showed an inhibition of -4.72%.
In the case of `O=[N+]([O-])c1ccc(OCCCCN2CCc3ccccc3C2)cc1`, the inhibition is reported as active: 62.1%.
With `CCN(CC)CCNC(=O)c1cc([N+](=O)[O-])c(N(C)C)cc1OC` the inhibition was active: 94.1%.
`Cc1ccc(CNC(=O)CSc2nnc(C)c3c(C)n(-c4ccccc4)nc23)cc1` gave an inhibition of -3.46%.
In the case of `CC1CCN(S(=O)(=O)c2ccc3c(ccc(=O)n3CC(=O)NCc3ccccc3Cl)c2)CC1`, the inhibition is reported as -8.38%.
`COc1cccc(CNCc2cccn2-c2nnc(N3CCN(c4ccccc4)CC3)s2)c1` was tested, and the inhibition was 16.8%.
`COc1ccc(-c2[nH]ncc2C(=O)NCc2cccc(OC)c2)cc1` showed an inhibition of 2.35%.
Compound `Cc1ccsc1CN(C(=O)COc1ccc(Cl)cc1)C1CCS(=O)(=O)C1` (stereo not given) has an inhibition of -1.69%.
Work on `O=C(CCn1c(=O)c2sccc2n(CC(=O)Nc2ccccc2)c1=O)NCc1ccccc1Cl` yielded an inhibition of -11.6%.
`CCn1c(=O)cc(SCC(=O)NCc2ccc(Cl)cc2)c2ccccc21` showed an inhibition of -9.38%.
With `COc1ccc(Cn2c(CCC(=O)Nc3ccc(C)cc3C)nc3cccnc32)cc1` the inhibition was 8.38%.
In the case of `Cc1oc2ccc(O)c(CN3CCN(C)CC3)c2c1C(=O)Nc1ccccc1`, the inhibition is reported as 15.3%.
Compound `COc1cccc(CNC(=O)c2cccc(-n3c(C)nc4cccnc43)c2C)c1` has an inhibition of 6.05%.
In the case of `OC1(c2ccc(Cl)cc2)CCN(Cc2cn[nH]c2-c2ccccc2)CC1`, the inhibition is reported as active: 84%.
For `CC(C)OCCCNC(=O)c1ccc(Cn2c(=O)c3cccn3c3cccnc32)cc1`, the inhibition was 0.0563%.
For `CCc1cc(C(=O)NCC(c2ccco2)N2CCCCC2)sc1C` (stereo not given), the inhibition was active: 38.6%.
With `O=C(O)Cc1sc(-c2ccc(C(=O)O)cc2)nc1-c1ccccc1` the inhibition was active: 32.7%.
`Cc1oc2ncn(C)c(=O)c2c1C(=O)Nc1ccc(F)cc1` gave an inhibition of 1.45%.
`CCOC(=O)c1[nH]c(C)c(CCC(=O)Nc2ccccc2C(=O)OC)c1C` gave an inhibition of 2.46%.
Work on `Cc1cc(N2CCN(c3ccc(F)cc3)CC2)n2nc(-c3ccc(Cl)cc3)nc2n1` yielded an inhibition of -7.09%.
For `CCc1nn(CC(=O)NCCc2ccc(Cl)cc2)c(=O)c2cc3ccccc3n12`, the inhibition was -2.53%.
For `Cc1ccc(-c2nnc(Nc3ccccc3)c3ccccc23)cc1S(=O)(=O)N1CCOCC1`, the inhibition was -4.1%.
`CCc1ccc2oc(=O)cc(CN3CCN(Cc4ccccc4)CC3)c2c1` was tested, and the inhibition was active: 38.6%.
For `Cc1cccc(N2CCN(C(=O)c3oc(=O)c4ccccc4c3-c3ccccc3)CC2C)c1` (stereo not given), the inhibition was -4.49%.
`NC(=O)c1cc(S(=O)(=O)NCC2CCC(C(=O)Nc3ccc(Cl)cc3)CC2)cs1` (stereo not given) showed an inhibition of -13.7%.
`Cc1nnc(N2CCN(C(=O)Nc3cccc(C(F)(F)F)c3)CC2)c2nn(-c3ccccc3)c(C)c12` was tested, and the inhibition was 11.9%.
Work on `O=C(Nc1cccc(Cl)c1)c1csnn1` yielded an inhibition of -22.6%.
For `Cc1cc(C)nc(Sc2c(C)n[nH]c2C)n1`, the inhibition was active: 31.6%.
`Cc1ccc(-c2nc(SCC(=O)NCC3CCCO3)c(-c3ccc(C)cc3)[nH]2)cc1` (stereo not given) was tested, and the inhibition was 17%.
In the case of `Cc1ccc(OCC(=O)Nc2ccc3nn(-c4ccc(Cl)cc4)nc3c2)cc1`, the inhibition is reported as 2.83%.
`O=c1c2oc3ccccc3c2n(Cc2ccccc2)c(=O)n1Cc1ccc2c(c1)OCO2` was tested, and the inhibition was -10.3%.
`CCOC(=O)c1cccc(Nc2ccc3cc(S(=O)(=O)N4CCCCC4)ccc3n2)c1` was tested, and the inhibition was -1.4%.
Compound `COc1cc(C2CC(=O)Nc3c2c(=O)[nH]c2ncnn32)ccc1O` (stereo not given) has an inhibition of 7.67%.
`Cc1ccc(C)c(NC(=O)Cn2c(=O)n(CCC(=O)NCc3ccc4c(c3)OCO4)c(=O)c3ccccc32)c1` was tested, and the inhibition was 20.1%.
For `CCCN1CCCc2cc(CN(CCCN3CCOCC3)C(=O)Nc3ccc(CC)cc3)ccc21`, the inhibition was -2.26%.
`CCCC(=O)N1c2nc(C(C)C)nn2C2(CCCCC2)[C@@H]2CCCC[C@@H]21` was tested, and the inhibition was 4.91%.
For `COc1cccc(NS(=O)(=O)c2ccc3[nH]cc(C(=O)N(C)C4CCCCC4)c(=O)c3c2)c1`, the inhibition was -6.48%.
Compound `CCCCn1c(=O)c2oc3ccccc3c2n(CC(=O)Nc2cccc(Cl)c2)c1=O` has an inhibition of 3.59%.
`CCCCc1nn2c(=O)cc(COC(=O)c3ccccc3NC(=O)c3ccccc3OC)nc2s1` gave an inhibition of -5.08%.
For `COc1cc2c(cc1OC)n(CC(=O)c1ccc(F)cc1)c(=O)n1nc(CCn3nc(C)cc3C)nc21`, the inhibition was 2.03%.
In the case of `COc1cccc(CNC(=O)c2ccc(NC(=O)N3CCCCc4ccccc43)cc2)c1`, the inhibition is reported as 6.18%.
Work on `COc1ccc(C)cc1NC(=O)c1ccc2c(Cl)c3c(nc2c1)CCC3` yielded an inhibition of 0.717%.
`CCOC(=O)N1CCN(C(=O)c2ccc(Cn3c(=S)[nH]c4cc5c(cc4c3=O)OCO5)cc2)CC1` was tested, and the inhibition was active: 31.2%.
Compound `Cn1nc(C(=O)N2CCN(c3ccccc3)CC2)c2c1-c1ccccc1S(=O)(=O)C2` has an inhibition of 4.47%.
With `COc1ccc(S(=O)(=O)c2c(SC)nn(Cc3ccccc3C)c2NC(C)=O)cc1` the inhibition was 8.17%.
Compound `O=C(CSc1nc2c([nH]c3ccccc32)c(=O)n1-c1ccccc1)N1CCCC1` has an inhibition of 4.93%.
For `CC(Oc1ccc(Br)cc1)C(=O)NC1CCN(Cc2ccccc2)CC1` (stereo not given), the inhibition was active: 64.4%.
`CCCCCOc1ccc(C2c3c(oc4ccccc4c3=O)C(=O)N2c2nc(C)c(C)s2)cc1OCC` (stereo not given) showed an inhibition of -7.9%.
`COc1ccc2c(c1)-c1nc(NC(=O)c3ccc(Cl)cc3)sc1CC2` gave an inhibition of 4.65%.
Work on `COc1ccc(CNc2ncnc3c2nnn3C)cc1` yielded an inhibition of -7.85%.
In the case of `CCN1CCN(S(=O)(=O)c2ccc(Cl)c(C(=O)NC(C)(C)C)c2)CC1`, the inhibition is reported as active: 30.4%.
`Cc1cccc(NC(=O)Cn2cc(C(=O)c3ccco3)c3ccccc32)c1C` was tested, and the inhibition was -6.4%.
`CCc1ccccc1NC(=O)Cn1nnc(C(=O)Nc2ccc(C)c(F)c2)c1N` showed an inhibition of 8.03%.
In the case of `Cc1nn(CC(=O)NCc2ccc(OC(C)C)cc2)c(=O)c2c(C)n(-c3ccc(Cl)cc3)nc12`, the inhibition is reported as 10.8%.
For `COc1ccc(NC(=S)N(CCCN2CCCC(C)C2)Cc2cccs2)cc1` (stereo not given), the inhibition was active: 49.3%.
`Cc1ccc2oc(-c3ccc(Cl)c(NC(=O)c4ccc(-c5ccccc5[N+](=O)[O-])o4)c3)nc2c1` was tested, and the inhibition was 0.221%.
`COC(=O)c1ccccc1NC(=O)Cc1noc2ccc(C)cc12` showed an inhibition of 26.6%.
Work on `CCc1ccc(NC(=O)CC2C(=O)N(c3ccccc3)C(=O)N2C(C)C)cc1` (stereo not given) yielded an inhibition of 9.82%.
For `COc1ccc(Br)cc1CNC(=O)CN1CCSc2ccccc21`, the inhibition was 14.7%.
Compound `O=C(Nc1ccc(Cl)c(Cl)c1)N1CCC(c2ccccc2)C1` (stereo not given) has an inhibition of -14%.
For `COc1ccc(NC(=O)Cn2c(=O)n(Cc3nc(-c4ccccc4)no3)c(=O)c3cc4c(cc32)OCO4)cc1Cl`, the inhibition was -0.25%.
For `Cc1ccc(-n2c(=O)c3ccc(C(=O)NCc4ccco4)cc3n(Cc3cccc(Cl)c3)c2=O)cc1`, the inhibition was 8.29%.
`CC(C)c1cnc2c(c1SCc1cccc(C(F)(F)F)c1)c(=O)n(C)c(=O)n2C` was tested, and the inhibition was 1.36%.
`O=C(Nc1ccc(F)cc1F)c1noc2c1CCc1ccccc1-2` showed an inhibition of -1.89%.

Source: PubChem BioAssay AID485344 (National Center for Advancing Translational Sciences (NCATS), 2010)
Further: 0% is about no effect.
